102 sequences from a collection of fitness landscapes (doi:10.1038/s41467-024-54723-y) can be followed below.

Whole data set: some 18,000 sequences, median “TetR repression strength (sort-seq, GFP reporter)” near 0.23, cut for the highest 2% near 0.68. This is one part of the list.

The test addresses TetR (class B, Tn10) (UniProt P04483). Put plainly: TetR repression strength (sort-seq, GFP reporter) (relative to tetO2 = 1); higher = stronger repression. Conditions: E. coli. In short, it runs like this: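 Three independent transformations of E. coli SIG10-MAX were made with a low-copy plasmid library randomizing eight operator positions between a constitutive promoter and sfGFP, with constitutive TetR. Following 5 h at 37 °C in LB plus 50 µg/mL chloramphenicol, 10^6 cells went through FACS into 13 fluorescence bins, and each bin was sequenced by Illumina. Repression strength was defined as the top bin index plus one minus the read-weighted mean bin, divided by the unaltered operator's value. Averages included only members reaching ≥30 reads in all replicates with a CV ≤0.5.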
Chain of UniProt P04483 (P04483 whole entry): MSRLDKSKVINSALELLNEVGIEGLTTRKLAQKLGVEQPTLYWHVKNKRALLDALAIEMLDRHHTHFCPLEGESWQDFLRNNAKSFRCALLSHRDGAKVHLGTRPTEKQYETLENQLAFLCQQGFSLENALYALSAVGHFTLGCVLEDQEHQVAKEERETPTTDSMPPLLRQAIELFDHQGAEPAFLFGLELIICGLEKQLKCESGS
With TCCCTCCAAGTACTTGAGA, the TetR repression strength worked out at 0.381.

Turning to TCCCTGAGAGTCGAAGAGA, the TetR repression strength came to 1.18.

Sequence TCCCTTGGAGTGTGGGAGA yielded a TetR repression strength of 0.2. As to TCCCGAAAAGTGGAGGAGA, the TetR repression strength was found to be 0.224. Then TCCCTGCGAGTTATCGAGA, with 0.126; and TCCCTGTTAGTGCATGAGA, with 0.0225. In the case of TCCCGTTCAGTTCTCGAGA, the TetR repression strength is 0.167. For the sequence TCCCTTGAAGTAATGGAGA, the TetR repression strength was determined as 0.405. Turning to TCCCGGTTAGTACCGGAGA, the TetR repression strength was 0.272.

TCCCATGAAGTGTATGAGA displayed a TetR repression strength of 0.102. In the case of TCCCTAAGAGTGTGCGAGA, the TetR repression strength worked out at 0.258. Then TCCCCACCAGTCCTCGAGA, with 0.528; and TCCCAAAAAGTGAGTGAGA, with 0.14; and TCCCGAGTAGTACGTGAGA, with 0.164. TCCCGACTAGTGATAGAGA showed a TetR repression strength of 0.632. Then TCCCGTGGAGTGCAGGAGA, with 0.187. Consider TCCCAGGGAGTGGTGGAGA, for which the TetR repression strength came out at 0.202.

On to TCCCGGCTAGTTACTGAGA, for which the TetR repression strength was 0.166. To TCCCAGGGAGTACACGAGA belongs 0.0214; to TCCCCACGAGTTCGAGAGA, 0.207; to TCCCCTGGAGTCTGGGAGA, 0.281. To TCCCTTACAGTATAGGAGA belongs 0.064. Then TCCCTAGAAGTACTAGAGA, with 0.152; and TCCCTGTAAGTTTGAGAGA, with 0.0173; and TCCCACGAAGTCAGCGAGA, with 0.445. For the sequence TCCCTTCTAGTTGGCGAGA, the TetR repression strength amounted to 0.281. With TCCCCGATAGTTCGGGAGA, the TetR repression strength was 0.337. Then TCCCAAGTAGTTGAGGAGA, with 0.321; and TCCCTGTCAGTTGTGGAGA, with 0.171; and TCCCGTACAGTGGGCGAGA, with 0.203. To TCCCCGTGAGTGTGCGAGA belongs 0.161; to TCCCAGATAGTAACCGAGA, 0.601.

TCCCACGCAGTTGTTGAGA: the TetR repression strength was found to be 0.306. To TCCCTTCAAGTTTACGAGA belongs 0.407. TCCCAGACAGTAACCGAGA: the TetR repression strength amounted to 0.473. In the case of TCCCGTCGAGTGGTGGAGA, the TetR repression strength was 0.154. The sequence TCCCACGCAGTAGATGAGA came in with a TetR repression strength of 0.131. Sequence TCCCATGAAGTCGGAGAGA displayed a TetR repression strength of 0.216. For TCCCATTCAGTGTTTGAGA, the TetR repression strength worked out at 0.318.

Take TCCCCACCAGTCACGGAGA: the TetR repression strength was determined as 0.152. Sequence TCCCATCTAGTATTTGAGA displayed a TetR repression strength of 0.512. In turn, TCCCAATAAGTATGCGAGA came in with a TetR repression strength of 0.238.

For the sequence TCCCGAACAGTGGTAGAGA, the TetR repression strength is 0.381.

Regarding TCCCCCTTAGTGAGTGAGA, the TetR repression strength was 0.113. As for TCCCAGATAGTTAAGGAGA, the TetR repression strength was determined as 0.222. To TCCCACGCAGTGCGGGAGA belongs 0.225. Then TCCCTAGCAGTTGTAGAGA, with 0.509. To TCCCAATCAGTGAAGGAGA belongs 0.671. TCCCTCGTAGTCAGGGAGA: the TetR repression strength is 0.305.

TCCCTTCCAGTACATGAGA showed a TetR repression strength of 0.233. Then TCCCGTAGAGTCTATGAGA, with 0.141; and TCCCCTCCAGTGGCTGAGA, with 0.161. Take TCCCGTAGAGTAAGCGAGA: the TetR repression strength was 0.192. Then TCCCGAGGAGTGGTAGAGA, with 0.256; and TCCCGGGTAGTAGGCGAGA, with 0.304; and TCCCGAACAGTCGGGGAGA, with 0.0895. To TCCCGGCCAGTATTCGAGA belongs 0.104. To TCCCAAATAGTACGCGAGA belongs 0.228.

Sequence TCCCATACAGTGTTGGAGA registered a TetR repression strength of 0.408.

For the sequence TCCCCTGAAGTTCGGGAGA, the TetR repression strength was 0.272. Then TCCCGGGAAGTGGTCGAGA, with 0.281; and TCCCATTGAGTTTGAGAGA, with 0.213. In the case of TCCCGCCGAGTCTCAGAGA, the TetR repression strength stood at 0.207. The sequence TCCCAGGGAGTGTGAGAGA showed a TetR repression strength of 0.229. To TCCCTAATAGTCGGAGAGA belongs 0.323. Then TCCCTGTGAGTGTAGGAGA, with 0.174; and TCCCAGGGAGTCAGTGAGA, with 0.319; and TCCCCTACAGTAGCGGAGA, with 0.171. To TCCCCTCGAGTACGGGAGA belongs 0.0841; to TCCCGCTTAGTCGGGGAGA, 0.522; to TCCCTATCAGTGCGTGAGA, 0.546.

For the sequence TCCCCTCGAGTCGCGGAGA, the TetR repression strength is 0.194. In turn, TCCCGAAGAGTGAAGGAGA gave a TetR repression strength of 0.179.

Sequence TCCCAATCAGTCGCAGAGA registered a TetR repression strength of 0.268. For the sequence TCCCCCCTAGTATAAGAGA, the TetR repression strength amounted to 0.524. Then TCCCCCTAAGTGCGAGAGA, with 0.0843. In the case of TCCCGAACAGTGGCCGAGA, the TetR repression strength was 0.276. In the case of TCCCTACGAGTTTCGGAGA, the TetR repression strength is 0.289.

As to TCCCAATGAGTTTTGGAGA, the TetR repression strength came out at 0.218.

TCCCAGGAAGTGGTGGAGA: the TetR repression strength is 0.147. With TCCCCCAGAGTTAGCGAGA, the TetR repression strength came out at 0.425. The sequence TCCCATTGAGTTCGGGAGA gave a TetR repression strength of 0.851. Then TCCCATGTAGTGACAGAGA, with 0.541.

TCCCTGGCAGTGACAGAGA returned a TetR repression strength of 0.515.

Sequence TCCCGGGGAGTTTACGAGA registered a TetR repression strength of 0. Then TCCCGTTTAGTGGGTGAGA, with 0.306; and TCCCAACGAGTAAATGAGA, with 0.6. In turn, TCCCGATCAGTAACAGAGA returned a TetR repression strength of 0.281. Then TCCCGCCTAGTGGCCGAGA, with 0.281; and TCCCTAGCAGTTTAGGAGA, with 0.276.

TCCCGCTAAGTTTCTGAGA came in with a TetR repression strength of 0.393. To TCCCCCCAAGTTTACGAGA belongs 0.398; to TCCCCCACAGTTAAAGAGA, 0.333; to TCCCGAGGAGTCCCTGAGA, 0.381. On to TCCCGTGGAGTAGGAGAGA, for which the TetR repression strength worked out at 0.198. Take TCCCTTTAAGTGGCCGAGA: the TetR repression strength came to 0.453. Then TCCCCTGTAGTGTTAGAGA, with 0.184; and TCCCTAGTAGTGTGTGAGA, with 0.287; and TCCCGCACAGTGCCAGAGA, with 0.277. To TCCCGTGGAGTAGTTGAGA belongs 0.242; to TCCCAGGAAGTAGGTGAGA, 0.213; to TCCCATCTAGTGAGGGAGA, 0.36.
